Measurements from patent US20250101074A1 (Affibody, published 2025).
Changes are numbered by the printed parent chain.

T1: human IL-17A (human, UniProt Q16552 20-155, limits assumed)
T1 sequence: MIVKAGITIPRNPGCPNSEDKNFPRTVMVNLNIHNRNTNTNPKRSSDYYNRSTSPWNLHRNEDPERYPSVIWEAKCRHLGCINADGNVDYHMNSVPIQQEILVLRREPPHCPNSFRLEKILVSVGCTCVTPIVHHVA

B1: His6-Z10241 (designed binder)
chain: MGSSHHHHHHLQVDAKYAKEADDAAVEIADLPNLTWDQWYAFISKLRDDPSQSSELLSEAKKLNDSQAPKVD
B2: His6-Z10433 (designed binder)
chain: B1 chain with V26F, D30A, S44I
B3: His6-Z10462 (designed binder)
chain: B1 chain with D23E, S44Q
B4: His6-Z10534 (designed binder)
chain: B1 chain with D37A, S44G
B5: His6-Z10566 (designed binder)
chain: B1 chain with V26I, D30S, S44G
B6: His6-Z10675 (designed binder)
chain: B1 chain with Y40F, S44Q
B7: His6-Z10681 (designed binder)
chain: B1 chain with D23E, D30E, S44R
B8: His6-Z10722 (designed binder)
chain: B1 chain with V26L, D30E, D37V, S44Q
B9: His6-Z10859 (designed binder)
chain: B1 chain with D23F, D30E, S44Q
B10: His6-Z10863 (designed binder)
chain: B1 chain with D23Q, D37A, S44Q
B11: His6-Z12059 (designed binder)
chain: B1 chain with V26Y, D30F, Y40F
B12: His6-Z12060 (designed binder)
chain: B1 chain with D23A, D30E, Y40W, S44N
B13: His6-Z12073 (designed binder)
chain: B1 chain with S44T
B14: His6-Z12077 (designed binder)
chain: B1 chain with D23L, Y40W, S44Q
B15: His6-Z12078 (designed binder)
chain: B1 chain with V26Y, D30Y, Y40F, S44T
B16: His6-Z12081 (designed binder)
chain: B1 chain with V26L, Y40W
B17: His6-Z12115 (designed binder)
chain: B1 chain with V26Y, D30Y, S44Q
B18: His6-Z12163 (designed binder)
chain: B1 chain with D23Q, V26Y, D30F, Y40F, S44N
B19: His6-Z12180 (designed binder)
chain: B1 chain with D30A, Y40W, S44G
B20: His6-Z12192 (designed binder)
chain: B1 chain with D37A, Y40E
B21: His6-Z12211 (designed binder)
chain: B1 chain with D23E, Y40W, S44N
B22: His6-Z12256 (designed binder)
chain: B1 chain with S44A
B23: His6-Z12264 (designed binder)
chain: B1 chain with V26Y, D30F, Y40W, S44Q
B24: His6-Z12275 (designed binder)
chain: B1 chain with Y40F, S44N
B25: His6-Z12283 (designed binder)
chain: B1 chain with V26Y, D30F, D37E, Y40F, S44D
B26: His6-Z12289 (designed binder)
chain: B1 chain with V26Y, D30G, S44E
B27: His6-Z12344 (designed binder)
chain: B1 chain with D30Y, Y40W, S44R
B28: His6-Z10718 (designed binder)
chain: B1 chain with Y40H, S44Q
B29: Z10718, periplasmic ABD fusion (designed binder)
chain: AQHDEALEVDAKYAKEADDAAVEIADLPNLTWDQWHAFIQKLRDDPSQSSELLSEAKKLNDSQAPKVDYVLAEAKVLANRELDKYGVSDYYKNLINNAKTVEGVKALIDEILAALPYVPG
notes: domain: GA3
B30: Z10728, periplasmic ABD fusion (designed binder)
chain: B29 chain with D26A, H36Y, Q40G
notes: domain: GA3
B31: Z10745, periplasmic ABD fusion (designed binder)
chain: B29 chain with D19N, D26S, H36F, Q40G
notes: domain: GA3
B32: Z10756, periplasmic ABD fusion (designed binder)
chain: B29 chain with D26L, H36Y, Q40G
notes: domain: GA3
B33: Z10759, periplasmic ABD fusion (designed binder)
chain: B29 chain with D26S, H36F, Q40S
notes: domain: GA3
B34: Z10775, periplasmic ABD fusion (designed binder)
chain: B29 chain with H36F, Q40G
notes: domain: GA3
B35: Z10778, periplasmic ABD fusion (designed binder)
chain: B29 chain with D33A, H36F
notes: domain: GA3
B36: Z10779, periplasmic ABD fusion (designed binder)
chain: B29 chain with D26A, H36F
notes: domain: GA3
B37: Z10800, periplasmic ABD fusion (designed binder)
chain: B29 chain with D19N, H36Y, Q40A
notes: domain: GA3
B38: Z10807, periplasmic ABD fusion (designed binder)
chain: B29 chain with D19E, D26E, H36Y, Q40G
notes: domain: GA3
B39: Z10844, periplasmic ABD fusion (designed binder)
chain: B29 chain with D19N, V22M, H36F
notes: domain: GA3
B40: Z10857, periplasmic ABD fusion (designed binder)
chain: B29 chain with D26A, H36Y
notes: domain: GA3
B41: Z10858, periplasmic ABD fusion (designed binder)
chain: B29 chain with D26E, D33A, H36F, Q40G
notes: domain: GA3
B42: Z10859, periplasmic ABD fusion (designed binder)
chain: B29 chain with D19F, D26E, H36Y
notes: domain: GA3
B43: Z10863, periplasmic ABD fusion (designed binder)
chain: B29 chain with D19Q, D33A, H36Y
notes: domain: GA3
B44: Z10914, periplasmic ABD fusion (designed binder)
chain: B29 chain with D19E, H36F
notes: domain: GA3

What was measured:
human IL-17A [1] = target: T1, human IL-17A; assay: cell-based or functional assay
human IL-17A [2] = target: T1, human IL-17A; assay: SPR (Biacore), immobilized hIL-17A, 1:1 model
Procedure: One flow cell surface on the chip was activated and deactivated for use as blank during analyte injections. In the kinetic experiment, HBS-EP was used as running buffer and the flow rate was 50 μl/min. […] Kinetic constants were calculated from the sensorgrams using the Langmuir 1:1 model of BiaEvaluation software 4.1 (GE Healthcare).

human IL-17A [3] = target: T1, human IL-17A; assay: ELISA, captured periplasmic Z-ABD, titrated b-hIL-17A
Procedure: Data were analyzed using GraphPad Prism 5 and non-linear regression, and EC50 values (the half maximal effective concentration) were calculated.

| Binder | IC50, IL-17A induced IL-6 production, NHDF cells (human IL-17A [1]) | Kd (human IL-17A [2]) | koff (human IL-17A [2]) | kon (human IL-17A [2]) | EC50 (human IL-17A [3]) |
| --- | --- | --- | --- | --- | --- |
| B1 | 5.3 nM | 2.2 nM | 0.0012 s⁻¹ | 520000 M⁻¹ s⁻¹ |  |
| B2 | 14 nM | 6.4 nM | 0.0031 s⁻¹ | 470000 M⁻¹ s⁻¹ |  |
| B3 | 6.6 nM |  |  |  |  |
| B4 | 6.5 nM |  |  |  |  |
| B5 | 9.6 nM | 9.3 nM | 0.0057 s⁻¹ | 610000 M⁻¹ s⁻¹ |  |
| B6 | 5.3 nM | 1.9 nM | 0.0011 s⁻¹ | 570000 M⁻¹ s⁻¹ |  |
| B7 | 25 nM | 5.2 nM | 0.0035 s⁻¹ | 670000 M⁻¹ s⁻¹ |  |
| B8 | 35 nM |  |  |  |  |
| B9 | 26 nM | 12 nM | 0.0068 s⁻¹ | 560000 M⁻¹ s⁻¹ |  |
| B10 | 8.5 nM | 3 nM | 0.0025 s⁻¹ | 830000 M⁻¹ s⁻¹ |  |
| B11 | 3.7 nM |  |  |  |  |
| B12 | 7.9 nM | 4.3 nM | 0.0033 s⁻¹ | 750000 M⁻¹ s⁻¹ |  |
| B13 | 4 nM | 2.3 nM | 0.0012 s⁻¹ | 490000 M⁻¹ s⁻¹ |  |
| B14 | 5.5 nM | 3.1 nM | 0.002 s⁻¹ | 650000 M⁻¹ s⁻¹ |  |
| B15 | 4.5 nM | 1.8 nM | 0.00081 s⁻¹ | 450000 M⁻¹ s⁻¹ |  |
| B16 | 8.1 nM | 6.2 nM | 0.0038 s⁻¹ | 620000 M⁻¹ s⁻¹ |  |
| B17 | 3 nM |  |  |  |  |
| B18 | 7 nM | 2.2 nM | 0.0016 s⁻¹ | 730000 M⁻¹ s⁻¹ |  |
| B19 | 4.3 nM |  |  |  |  |
| B20 | 28 nM | 12 nM | 0.0056 s⁻¹ | 460000 M⁻¹ s⁻¹ |  |
| B21 | 2.9 nM | 2.4 nM | 0.0014 s⁻¹ | 580000 M⁻¹ s⁻¹ |  |
| B22 | 4.4 nM | 3.4 nM | 0.0012 s⁻¹ | 350000 M⁻¹ s⁻¹ |  |

| Binder | IC50, IL-17A induced IL-6 production, NHDF cells (human IL-17A [1]) | Kd (human IL-17A [2]) | koff (human IL-17A [2]) | kon (human IL-17A [2]) | EC50 (human IL-17A [3]) |
| --- | --- | --- | --- | --- | --- |
| B23 | 4.4 nM | 0.93 nM | 0.00055 s⁻¹ | 600000 M⁻¹ s⁻¹ |  |
| B24 | 4.8 nM | 2 nM | 0.0011 s⁻¹ | 520000 M⁻¹ s⁻¹ |  |
| B25 | 6.9 nM | 3.3 nM | 0.0018 s⁻¹ | 550000 M⁻¹ s⁻¹ |  |
| B26 | 18 nM | 5.3 nM | 0.0033 s⁻¹ | 620000 M⁻¹ s⁻¹ |  |
| B27 | 4.8 nM | 0.92 nM | 0.00066 s⁻¹ | 710000 M⁻¹ s⁻¹ |  |
| B28 | 28 nM |  |  |  |  |
| B29 |  |  |  |  | 0.51 nM |
| B30 |  |  |  |  | 0.53 nM |
| B31 |  |  |  |  | 0.68 nM |
| B32 |  |  |  |  | 0.64 nM |
| B33 |  |  |  |  | 0.67 nM |
| B34 |  |  |  |  | 0.51 nM |
| B35 |  |  |  |  | 0.47 nM |
| B36 |  |  |  |  | 0.57 nM |
| B37 |  |  |  |  | 0.64 nM |
| B38 |  |  |  |  | 0.6 nM |
| B39 |  |  |  |  | 0.75 nM |
| B40 |  |  |  |  | 0.45 nM |
| B41 |  |  |  |  | 0.52 nM |
| B42 |  |  |  |  | 0.69 nM |
| B43 |  |  |  |  | 0.45 nM |
| B44 |  |  |  |  | 0.51 nM |
